# Source: the supplement of paper PMC10126150
# Values marked as one replicate rest on one cluster of the flow cell; about a third of the high ones do not repeat.
# Test system: ATP
# Assay: switch fluorescence ratio, 500 uM ATP over buffer (Cy3 cluster intensity, sum of 5 cycles each) (fold (ratio)); higher = stronger signal-on switching upon ATP binding; sequences stand for … in TCGTCGGCAGCGTCAGATGTGTATAAGAGACAGTTTTTTTTTTTTTTTTTTTTTTTTT…TC
# Details: aptamer strand: ATP DNA aptamer (quencher-CACCTGGGGGAGTATTGCGGAGGAAGG + anchor), 100 nM annealed; ATP concentration: 500 uM; one replicate
# Procedure, shortened: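 Clusters carrying Cy3-labelled switching strands on a modified Illumina MiSeq flow-cell were annealed to 100 nM quencher-labelled ATP aptamer and imaged in selection buffer. They were imaged again after 15 min with 500 uM ATP at 22 °C, over five buffer/ATP cycles with NaOH stripping and re-annealing in between. For each cluster, the fluorescence ratio is the summed Cy3 intensity of the target cycles divided by that of the buffer cycles, averaged per switch-domain sequence. Clusters outside 100-1000 RFU were left out.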
# 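Note: ATP exposure 15 min at 22 °C before imaging.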
sequence,measurement,value
TCGGTTCTA,switch fluorescence ratio,1.03
AGATTATGCT,switch fluorescence ratio,1.02
TCGACGCCTT,switch fluorescence ratio,2.68
GTGTACTAAG,switch fluorescence ratio,1.04
GAACGCAAGG,switch fluorescence ratio,1.39
CTACGCGCTG,switch fluorescence ratio,1.07
AAGAGGGTTG,switch fluorescence ratio,1.01
TTGCGAGGCG,switch fluorescence ratio,0.966
GGGAACTCGA,switch fluorescence ratio,1.01
TGACATTGCA,switch fluorescence ratio,0.986
TAGAGGGAAT,switch fluorescence ratio,0.984
GACTGCGGGT,switch fluorescence ratio,0.921
TGTTCGCTAC,switch fluorescence ratio,3.64
GAAATCCGGG,switch fluorescence ratio,0.985
AAAGGGTCC,switch fluorescence ratio,1
TGCCTGTGTC,switch fluorescence ratio,0.924
ACGTTCCGGG,switch fluorescence ratio,1.29
ATGTGGGAAA,switch fluorescence ratio,0.994
ACCTTAGGGC,switch fluorescence ratio,0.989
ACGGGAGGCA,switch fluorescence ratio,1.02
GCACGTAGGG,switch fluorescence ratio,0.995
GCTCATTCCG,switch fluorescence ratio,1.06
AGACAGTTGT,switch fluorescence ratio,1.02
GCATGCCTTG,switch fluorescence ratio,1.01
AAGAAGACCT,switch fluorescence ratio,1.17
TCGTGTCCGG,switch fluorescence ratio,0.976
TCTCTATGCT,switch fluorescence ratio,1.01
ATTCCGCAAA,switch fluorescence ratio,2.65
TCAATAAACT,switch fluorescence ratio,1.02
TGCCAGTTTC,switch fluorescence ratio,0.978
ATAATGTGTA,switch fluorescence ratio,1.06
TGTGCACTTA,switch fluorescence ratio,1
GGACGGGTTC,switch fluorescence ratio,1.02
CTCACGACAG,switch fluorescence ratio,1.03
CTTGATAGGG,switch fluorescence ratio,1.01
TTGACGTAGC,switch fluorescence ratio,1.27
CAACAGTGGA,switch fluorescence ratio,0.991
ACTACGCGCC,switch fluorescence ratio,3.74
CCATTTTGCT,switch fluorescence ratio,0.988
CAGAGCCATC,switch fluorescence ratio,1.06
ATGACTTCCA,switch fluorescence ratio,1.03
CAATAAGTGG,switch fluorescence ratio,0.999
GCCAGTATAC,switch fluorescence ratio,1.26
GATGACGATG,switch fluorescence ratio,1.07
CATGGGTGGT,switch fluorescence ratio,1.06
AGTGACGGCA,switch fluorescence ratio,1.05
GCCCTTCTCC,switch fluorescence ratio,1.24
TTAGTGTATT,switch fluorescence ratio,0.973
AAAAATTCGA,switch fluorescence ratio,1.06
ACTGGCATTA,switch fluorescence ratio,1.07
GGCGAACTAG,switch fluorescence ratio,1.04
AAGGATGGT,switch fluorescence ratio,1.04
TATACCTATG,switch fluorescence ratio,1
CGTAAAATTG,switch fluorescence ratio,1.01
TGTGGGTGG,switch fluorescence ratio,0.952
GATTCCGGCA,switch fluorescence ratio,0.99
GAAATTTGCG,switch fluorescence ratio,0.975
TTAAAGAGTT,switch fluorescence ratio,0.989
TTCACGACTC,switch fluorescence ratio,1.05
TCTTCTAAGG,switch fluorescence ratio,1.04
AGCACCTGCA,switch fluorescence ratio,1.06
CTGGCAGCCG,switch fluorescence ratio,1.03
CCTGTCTTAC,switch fluorescence ratio,1.57
AGTATACCTA,switch fluorescence ratio,0.926
TAGTCAACGA,switch fluorescence ratio,1.03
TACCTTTGTA,switch fluorescence ratio,1.03
GGAGGGGTGG,switch fluorescence ratio,0.982
CAGGGTGTAT,switch fluorescence ratio,1.01
TGACGTCAAG,switch fluorescence ratio,0.962
GCCTGCGTTA,switch fluorescence ratio,1.08
CCTCGACCTC,switch fluorescence ratio,1.46
AGCTAGGTCG,switch fluorescence ratio,1.13
CGCTCGTTCC,switch fluorescence ratio,1.25
TGGTCTCAAA,switch fluorescence ratio,0.988
TTATGTTATT,switch fluorescence ratio,1.02
TTTTTAT,switch fluorescence ratio,0.972
TTGGGTCACT,switch fluorescence ratio,1.02
AGCGGTAATC,switch fluorescence ratio,1.03
TCTTAGGAAT,switch fluorescence ratio,1.03
TCGGCTCACG,switch fluorescence ratio,0.941
AGTCATACGC,switch fluorescence ratio,1.1
CATATGTATA,switch fluorescence ratio,1.01
ACGAAATCAG,switch fluorescence ratio,1.04
GTATAAAGGT,switch fluorescence ratio,1.01
TTTGTGGAG,switch fluorescence ratio,0.998
TGAAAATATA,switch fluorescence ratio,0.976
ACGTTTAGTT,switch fluorescence ratio,0.988
CGTCTTACTG,switch fluorescence ratio,1.05
GGACATTCCT,switch fluorescence ratio,1.56
AATTGGGGAC,switch fluorescence ratio,0.95
GAGAGTGGGT,switch fluorescence ratio,0.988
CAAGAAGAAA,switch fluorescence ratio,1.01
CAATCAGCAG,switch fluorescence ratio,1.12
AGTCAGGTTG,switch fluorescence ratio,0.986
CCAGGGCCCG,switch fluorescence ratio,1.03
AGATAAGAAG,switch fluorescence ratio,0.983
GAATTTTACG,switch fluorescence ratio,0.994
TTGCGAGCAT,switch fluorescence ratio,1.04
TGTTAGTAGA,switch fluorescence ratio,1.03
TTCGGTTCGC,switch fluorescence ratio,1
TAGAGGCCGA,switch fluorescence ratio,1.06
TAGACTAGCT,switch fluorescence ratio,1
TGCCATCAGT,switch fluorescence ratio,0.98
CGGGCAACGA,switch fluorescence ratio,1.06
CGCCGCGTGT,switch fluorescence ratio,1.05
CTGTGTTCAT,switch fluorescence ratio,1.04
GATCTGACTT,switch fluorescence ratio,1.03
ACCTCTGTGC,switch fluorescence ratio,1.2
GCAGTAAACG,switch fluorescence ratio,1.06
GTTGGCGAAA,switch fluorescence ratio,0.928
TTCGCAGATT,switch fluorescence ratio,0.996
GATTAGTCT,switch fluorescence ratio,0.97
TCCATTGTAT,switch fluorescence ratio,0.982
GACAGTGCA,switch fluorescence ratio,1.06
ACCGGCAAGT,switch fluorescence ratio,1.13
CTTTTATCGA,switch fluorescence ratio,0.973
TTCTGCCCCA,switch fluorescence ratio,1.02
TACTATCTAG,switch fluorescence ratio,0.986
GCATTGTAGT,switch fluorescence ratio,0.995
GATAGAGAGC,switch fluorescence ratio,1.16
AAGTCTTGCC,switch fluorescence ratio,1.01
TACTTCATTA,switch fluorescence ratio,1.02
ACAGTGTTAG,switch fluorescence ratio,1.02
AAGTCACAGC,switch fluorescence ratio,1.02
TTAATATCGA,switch fluorescence ratio,1.02
CCAGAGGGGC,switch fluorescence ratio,1.05
CACGTAGGGT,switch fluorescence ratio,1.1
GTCGAAAGTG,switch fluorescence ratio,0.929
ATGACGTCGG,switch fluorescence ratio,0.989
TTGACATTGA,switch fluorescence ratio,0.967
ATCGAGCTGA,switch fluorescence ratio,1.01
TGCGGCGGAT,switch fluorescence ratio,0.991
GAGGCAGTAT,switch fluorescence ratio,1.44
GGTTAATTGC,switch fluorescence ratio,0.884
TTCGAGGTGT,switch fluorescence ratio,1.03
AGCTTCCCAC,switch fluorescence ratio,1.47
ATAACTATCC,switch fluorescence ratio,1.07
TGACATTTCT,switch fluorescence ratio,0.968
TGAACTCGCC,switch fluorescence ratio,1.12
TGGCTGGCGT,switch fluorescence ratio,0.979
TTACAGGACC,switch fluorescence ratio,1.01
GGCCTGGCTG,switch fluorescence ratio,0.973
TACTGTCTAA,switch fluorescence ratio,1.03
CATTACTTCG,switch fluorescence ratio,1.08
GGTTGAACTG,switch fluorescence ratio,0.969
CTGTTGTC,switch fluorescence ratio,1
ATGCCCGGTG,switch fluorescence ratio,1.02
AGCATGTCTT,switch fluorescence ratio,1
ACGAGATAAG,switch fluorescence ratio,1.04
AGGACTCCAG,switch fluorescence ratio,1.01
CCGGTGCAGT,switch fluorescence ratio,4.19
AGACATTGAA,switch fluorescence ratio,1.01
TCAATGCTCG,switch fluorescence ratio,1.06
GGAAAATGTT,switch fluorescence ratio,1
ACGGGCATAC,switch fluorescence ratio,6.23
GCTAGAGACA,switch fluorescence ratio,1.05
CATGTTACGC,switch fluorescence ratio,1.06
GGTGCCCAGC,switch fluorescence ratio,0.96
AGTAATGGCG,switch fluorescence ratio,0.976
TCTACTTGAG,switch fluorescence ratio,1.02
TTTGACTCCG,switch fluorescence ratio,1.04
TTAATAGTCT,switch fluorescence ratio,1.01
TGAAGACGGG,switch fluorescence ratio,0.99
GGATGTAATA,switch fluorescence ratio,0.999
GTTCATTTGA,switch fluorescence ratio,1.04
TCAGACAGGT,switch fluorescence ratio,1.01
TCAATGCTGA,switch fluorescence ratio,1.01
TGACGCGTTA,switch fluorescence ratio,1.08
ACCGTCAGCC,switch fluorescence ratio,1.11
AAGATACCCG,switch fluorescence ratio,1.02
GATTTAGTCG,switch fluorescence ratio,1.01
GCTCATTCGA,switch fluorescence ratio,1
CGGTAGTAGG,switch fluorescence ratio,0.988
AGTAGCGGCG,switch fluorescence ratio,1.04
GAGTGGGAGA,switch fluorescence ratio,0.969
ATCTAAGGCC,switch fluorescence ratio,0.994
TCAGTACGCC,switch fluorescence ratio,1.05
CAGCGGCAAA,switch fluorescence ratio,1.42
CCAGAGGTTA,switch fluorescence ratio,1.06
AGGGTACTGG,switch fluorescence ratio,1.01
GAGGAGGTC,switch fluorescence ratio,0.957
TTTGAGCATG,switch fluorescence ratio,0.986
CAAGCAAATG,switch fluorescence ratio,1.14
ACCAAGGCAG,switch fluorescence ratio,0.994
AATTTCATCT,switch fluorescence ratio,1
TATGGAGGAC,switch fluorescence ratio,0.967
GAATTTAGAG,switch fluorescence ratio,0.979
TGTGCGTATC,switch fluorescence ratio,1.02
GTACGAGTGT,switch fluorescence ratio,0.994
TGGCAAGTAT,switch fluorescence ratio,0.984
CCCGACTGAT,switch fluorescence ratio,1.05
GACTAGTTTG,switch fluorescence ratio,0.989
CAAACACCT,switch fluorescence ratio,1.38
AGGTACTTCG,switch fluorescence ratio,1.04
CATTTAATCG,switch fluorescence ratio,0.917
GTGACGACTT,switch fluorescence ratio,1.03
GCACGGTATC,switch fluorescence ratio,1.11
CGCATTATGG,switch fluorescence ratio,1.52
ACGGATAGCA,switch fluorescence ratio,1.02
ACTGACCGCG,switch fluorescence ratio,1.01
